Test results taken from the supplement of paper PMC3334620.
In all, about 33,000 sequences were measured (“E-score (-0.5 to 0.5)”: median about -0.013, highest 2% from about 0.3 on). Some of the results follow.

molecular target: T1, Msn1 (UniProt P22148); experiment: PBM E-score (8-mer binding enrichment) (E-score (-0.5 to 0.5)); higher = stronger / more preferred TF binding; most listed sequences are background and not binding sites; details: protein concentration: 200 nM; construct: GST-full length
T1 sequence: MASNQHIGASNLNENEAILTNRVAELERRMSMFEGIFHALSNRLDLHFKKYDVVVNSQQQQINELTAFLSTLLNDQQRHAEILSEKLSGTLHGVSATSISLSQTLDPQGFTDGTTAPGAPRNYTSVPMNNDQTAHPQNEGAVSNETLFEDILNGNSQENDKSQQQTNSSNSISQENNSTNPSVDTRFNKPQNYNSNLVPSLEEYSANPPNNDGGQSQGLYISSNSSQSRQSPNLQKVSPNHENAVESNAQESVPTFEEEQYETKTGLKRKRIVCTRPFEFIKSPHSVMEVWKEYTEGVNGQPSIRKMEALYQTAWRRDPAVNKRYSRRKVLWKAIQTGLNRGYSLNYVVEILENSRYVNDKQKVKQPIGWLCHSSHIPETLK
Summary of the method: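 PURExpress in vitro transcription/translation supplied GST-tagged yeast transcription factors, either full-length or DNA-binding domain. Applied at about 100-200 nM to universal all-10-mer Agilent arrays double-stranded by primer extension, the bound protein was detected with fluorescent anti-GST. E-scores, modified Wilcoxon-Mann-Whitney statistics, were given by the Universal PBM Analysis Suite to ungapped eight-base words pooled with their reverse complements after masliner normalisation.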

Row | Sequence | PBM E-score
1 | TAGCCCTA | -0.081
2 | CTGTGTCC | 0.439
3 | CTTTTCTC | -0.0403
4 | ACTCTAGC | -0.209
5 | GAGCACGC | -0.229
6 | AAAGTCGA | 0.0543
7 | ACCGTCTA | -0.11
8 | AACACGCT | -0.0498
9 | AATCATAC | 0.0636
10 | ATTCCATA | 0.111
11 | CGCCCGAA | 0.0353
12 | AAACTCAG | -0.017
13 | CCACCATC | -0.252
14 | CCTCAGTC | -0.176
15 | CTTCTTAA | -0.0177
16 | AAATGCTC | 0.0767
17 | AGCAATTC | 0.0543
18 | AGGGCGCG | -0.186
19 | GATGAAAA | 0.123
20 | CTTCAACA | 0.0766
21 | AGGAGCCC | -0.254
22 | AAGTCGAC | 0.196
23 | AACGGTCG | -0.0226
24 | CCTCGGCG | -0.0196
25 | TGGGCTAA | 0.0373

Row | Sequence | PBM E-score
26 | AAAAAAAG | 0.167
27 | AAAACACA | 0.0509
28 | CACCGCGA | 0.0987
29 | ATGCAGCA | -0.0766
30 | CAACGGTG | -0.181
31 | AAAATTTC | -0.0273
32 | ACGTCAAT | -0.00977
33 | TGAATTAA | 0.134
34 | CCTTCACC | -0.233
35 | AGATTGGG | 0.102
36 | ACGGGGTG | -0.209
37 | CAACTATA | 0.0554
38 | ACCGTCCA | -0.0179
39 | AAAACGCT | 0.0419
40 | AGGAATTC | -0.0844
41 | ACGAGCCG | 0.0863
42 | CGACGGCC | 0.0509
43 | ACAAGCTA | -0.102
44 | GATCGCCC | -0.24
45 | ACTAGGTC | 0.0539
46 | TCTTATCA | 0.243
47 | AATGTTTA | -0.0301
48 | CGATTTAC | -0.00545
49 | ATTACCCA | 0.098
50 | CGTACAAC | 0.093

Row | Sequence | PBM E-score
51 | ATGCACGC | -0.143
52 | CAAGAAAC | 0.081
53 | ACATCAGT | 0.0444
54 | CGGTGTTA | -0.0399
55 | ATGCGGGC | -0.229
56 | CCCCCCGA | -0.272
57 | ATGGTCCG | 0.125
58 | GTCCTGCA | 0.239
59 | ACATTTCG | 0.241
60 | GACCTATC | 0.0973
61 | GCCCTAGA | -0.118
62 | CATGAGCG | -0.208
63 | AATAAACT | 0.025
64 | GAAAGTTA | 0.0769
65 | AAGCACGC | 0.0342
66 | ATGAGTAG | -0.0662
67 | CGAGACAG | -0.00132
68 | ACGTTGTC | 0.119
69 | GGTTGGAA | -0.192
70 | ACCAGGCT | -0.184
71 | GCCCCGTA | -0.186
72 | GGCCACTA | -0.188
73 | CAACCCAA | -0.092
74 | TGCCCACA | -0.279
75 | AGTCGCAG | -0.0381

Row | Sequence | PBM E-score
76 | TCCTACAA | 0.145
77 | ACAACCGC | 0.0262
78 | TTCAGCAA | 0.0262
79 | CCCCAATC | -0.222
80 | TATCGGCA | 0.112
81 | ACTCGGAA | 0.143
82 | CGGGAGTA | 0.0678
83 | GCAACAGC | -0.0393
84 | ATTTCGAC | -0.0556
85 | GGGCCCAC | -0.159
86 | ACCGCTCA | -0.0179
87 | AATTTGAT | -0.115
88 | CGTCGCTC | 0.112
89 | AAGAGCGA | -0.206
90 | GAAACTCA | 0.0588
91 | GCAATCCA | -0.0397
92 | ACCAAATG | 0.143
93 | CGAAACAA | 0.151
94 | ACCCTAGT | -0.18
95 | GTCATGAC | 0.272
96 | CGACTGCG | -0.184
97 | GGGGTGCA | -0.0694
98 | ACCATATA | 0.209
99 | CGTGGCCC | -0.221
100 | AATCTCGA | 0.106

Row | Sequence | PBM E-score
101 | CGGATAAG | -0.00604
102 | AAAGTGCA | 0.164
103 | AAAAAGGC | 0.00641
104 | ACCCATAC | -0.118
105 | ACTGCCCT | -0.175
106 | ACACTGCG | -0.0692
107 | CAAACGGA | -0.00924
108 | AAGGAGGG | -0.257
109 | CTACCTCC | -0.0369
110 | AATGGTAT | -0.0291
111 | AGACACGC | 0.265
112 | GTAACTCA | -0.219
113 | GAGACGCC | -0.174
114 | AGCCCAGG | -0.267
115 | GACTTGTA | 0.174
116 | TCCAGACA | 0.16
117 | AACTGAGT | -0.00489
118 | CCTCCTCA | -0.316
119 | TAGCGAAA | 0.0628
120 | TAGCTACA | 0.0862
121 | ACAGCTGT | 0.0915
122 | TCGGCCGA | 0.31
123 | ATCAAAGC | -0.0592
124 | ATGTGATG | -0.137
125 | GGAGAAAC | 0.0302

Row | Sequence | PBM E-score
126 | TCACCGGA | -0.0445
127 | CCCCACAC | -0.104
128 | CCCCTTTC | -0.253
129 | CGCGGCGC | 0.0917
130 | ACATAGAT | 0.281
131 | CAAGAGAC | 0.0882
132 | ATCGCTGA | -0.0106
133 | ACGAGGCC | -0.213
134 | ACTTCCAC | -0.172
135 | GCTTTCAC | 0.014
136 | ATGGTGTG | -0.045
137 | AACGGGGG | -0.318
138 | CCGAAGCG | 0.00546
139 | AAGGGAAA | -0.054
140 | CCTGTATC | 0.0611
141 | ATCCAACA | 0.0858
142 | GCCGAGTA | 0.0548
143 | AGATCAAC | -0.0271
144 | AGGTACCA | -0.036
145 | ATGTTGCG | 0.0962
146 | CATACTAG | 0.126
147 | ATCTAAGC | -0.186
148 | GCCCTCCA | -0.222
149 | ATCTACCC | -0.131
150 | CCATTACG | -0.0849

Row | Sequence | PBM E-score
151 | CACCCCCG | -0.237
152 | CCCACACG | -0.0713
153 | AGGTTTTG | -0.0837
154 | ACCGGTGA | 0.0967
155 | ACAACTCT | -0.0195
156 | ACAACTGA | 0.114
157 | ACTGTGCG | 0.0446
158 | ATTGTGTG | -0.0187
159 | ACCTCCGA | -0.084
160 | TACGTATA | 0.0531
161 | AAGGGACA | 0.44
162 | GGCTTACA | 0.0257
163 | GGATGGCA | -0.101
164 | AGAGTATC | 0.0564
165 | GGGGCGAA | -0.115
166 | TGTCCTAA | 0.487
167 | GAAGCTAC | 0.126
168 | AAATACCA | -0.0306
169 | AACACAAC | 0.103
170 | AAAGCAAT | 0.208
171 | GCGTGGGA | -0.135
172 | CCAAACAC | -0.0988
